The values that follow come from article doi:10.1101/2025.04.04.647053 (bioRxiv, 2025).

This experiment deals with CLASPIN (H. sapiens, UniProt Q9HAW4). In words: cryo-EM structure.

B1: MCM2 (natural protein)
chain: not shown
For the molecule B1, the binding result is given as “binds”.
